Measurements published in PMC10691697, “A small molecule exerts selective antiviral activity by targeting the human cytomegalovirus nuclear egress complex” (PLOS Pathogens, 2023).
Where “and” joins values, the source holds several entries; their conditions need not be identical. Equal values may be shown once. Read-outs that look alike come from different tables or passages of the source.

Tests used:
HCMV UL50-UL53 = target: T1, HCMV UL50-UL53 (Human cytomegalovirus, UniProt P16794); assay: biochemical; type: binding; conditions: for HTRF ratio for NEC + GK1, Mean / Fluorescence at 620 nm for NEC + GK1, Mean: triplicate; for HTRF ratio for NEC + GK1: A665nm/A620nm * 10000
T1 construct: GST (N, cleaved yes); 13-residue glycine-serine linker […]; made in house; host or cells: E. coli BL21 (DE3) RIPL

HSV-1 P30-UL42 = target: T2, HSV-1 P30-UL42 (Human herpesvirus 1, UniProt P10226); assay: biochemical; type: binding
T2 construct: containing UL42 residues 1–340; GST (N); glycine-serine linker of the modified pGEX6p plasmid (presence inferred) (N); made in house; host or cells: E. coli (UL42: pLysS BL21)

HSV-1 strain KOS = type: cell-based, herpes simplex virus 1; conditions: for anti-HSV: number of plaques relative to DMSO vehicle: replicates
Procedure: Standard plaque reduction assays used to assess the antiviral activity of GK1 and GK2 against HSV in HFF cells were performed as described with minor modifications. Briefly, 1x10^5 HFF cells in each well of a 24-well plate were infected with ~ 100 PFU/well of HSV-1 strain KOS. After 2h, the inocula was removed and DMEM containing methylcellulose, 1% DMSO, and various concentrations of GK1 or GK2 was added. After two days, plaques were stained with crystal violet and counted. ED50’s for GK1 or GK2 were calculated as described above.

C=CC(=O)Nc1cccc(Oc2cc(Cl)nc3[nH]ccc23)c1 [GK1]
HTRF ratio for NEC + GK1, Mean (HCMV UL50-UL53; 4.15 microM): 33061
HTRF ratio for NEC + GK1 (HCMV UL50-UL53; 5.91 microM, replicates): 32268 and 30080 and 28992
Fluorescence at 620 nm for NEC + GK1 (HCMV UL50-UL53; 5.91 microM, replicates): 5852 and 5634 and 5816
Fluorescence at 620 nm for NEC + GK1, Mean (HCMV UL50-UL53; 5.91 microM): 5767
HTRF ratio for NEC + GK1, Mean (HCMV UL50-UL53; 5.91 microM): 30447
HTRF ratio for NEC + GK1 (HCMV UL50-UL53; 8.42 microM, replicates): 25946 and 24980 and 25263
Fluorescence at 620 nm for NEC + GK1 (HCMV UL50-UL53; 8.42 microM, replicates): 5854 and 6175 and 6116
Fluorescence at 620 nm for NEC + GK1, Mean (HCMV UL50-UL53; 8.42 microM): 6048
HTRF ratio for NEC + GK1, Mean (HCMV UL50-UL53; 8.42 microM): 25396
HTRF ratio for NEC + GK1 (HCMV UL50-UL53; 12 microM, replicates): 23255 and 23274 and 23606
Fluorescence at 620 nm for NEC + GK1 (HCMV UL50-UL53; 12 microM, replicates): 5899 and 5853 and 5912
Fluorescence at 620 nm for NEC + GK1, Mean (HCMV UL50-UL53; 12 microM): 5888
HTRF ratio for NEC + GK1, Mean (HCMV UL50-UL53; 12 microM): 23378
HTRF ratio for NEC + GK1 (HCMV UL50-UL53; 17.1 microM, replicates): 17877 and 20917 and 19067
Fluorescence at 620 nm for NEC + GK1 (HCMV UL50-UL53; 17.1 microM, replicates): 6496 and 6008 and 6376
Fluorescence at 620 nm for NEC + GK1, Mean (HCMV UL50-UL53; 17.1 microM): 6293
HTRF ratio for NEC + GK1, Mean (HCMV UL50-UL53; 17.1 microM): 19287
HTRF ratio for NEC + GK1 (HCMV UL50-UL53; 24.2 microM, replicates): 18144 and 18416 and 18741
Fluorescence at 620 nm for NEC + GK1 (HCMV UL50-UL53; 24.2 microM, replicates): 5803 and 5999 and 5884
Fluorescence at 620 nm for NEC + GK1, Mean (HCMV UL50-UL53; 24.2 microM): 5895
HTRF ratio for NEC + GK1, Mean (HCMV UL50-UL53; 24.2 microM): 18434
HTRF ratio for NEC + GK1 (HCMV UL50-UL53; 34.7 microM, replicates): 15326 and 15907 and 15649
Fluorescence at 620 nm for NEC + GK1 (HCMV UL50-UL53; 34.7 microM, replicates): 6036 and 5898 and 6162
Fluorescence at 620 nm for NEC + GK1, Mean (HCMV UL50-UL53; 34.7 microM): 6032
HTRF ratio for NEC + GK1, Mean (HCMV UL50-UL53; 34.7 microM): 15627
HTRF ratio for NEC + GK1 (HCMV UL50-UL53; 49.5 microM, replicates): 14015 and 15215 and 18406
Fluorescence at 620 nm for NEC + GK1 (HCMV UL50-UL53; 49.5 microM, replicates): 5718 and 5728 and 5589
Fluorescence at 620 nm for NEC + GK1, Mean (HCMV UL50-UL53; 49.5 microM): 5678
HTRF ratio for NEC + GK1, Mean (HCMV UL50-UL53; 49.5 microM): 15879
remaining activity at 0.2 µM (HCMV UL50-UL53; WT UL50-UL53, 0.20 μM compound, replicates, read-out: normalized FRET signal relative to control without inhibitor): 91%
remaining activity at 1.56 µM (HCMV UL50-UL53; WT UL50-UL53, 1.56 μM compound, replicates, read-out: normalized FRET signal relative to control without inhibitor): 71%
remaining activity at 50 µM (HCMV UL50-UL53; WT UL50-UL53, 50.00 μM compound, replicates, read-out: normalized FRET signal relative to control without inhibitor): 25%
remaining activity at 25 µM (HCMV UL50-UL53; WT UL50-UL53, […] compound, replicates, read-out: normalized FRET signal relative to control without inhibitor): 26%
IC50 (HCMV UL50-UL53; tagged HCMV NEC complex): 5.3 ± 1.1 µM
remaining activity at 1.56 µM (HSV-1 P30-UL42; HSV1 P30-UL42, 1.56 μM compound, replicates, read-out: normalized FRET signal relative to control without inhibitor): 92%
remaining activity at 3.13 µM (HSV-1 P30-UL42; HSV1 P30-UL42, 3.13 μM compound, replicates, read-out: normalized FRET signal relative to control without inhibitor): 99%
remaining activity at 6.25 µM (HSV-1 P30-UL42; HSV1 P30-UL42, 6.25 μM compound, replicates, read-out: normalized FRET signal relative to control without inhibitor): 108%
remaining activity at 50 µM (HSV-1 P30-UL42; HSV1 P30-UL42, 50.00 μM compound, replicates, read-out: normalized FRET signal relative to control without inhibitor): 116%
inhibition in the HSV-1 P30-UL42 counterscreen assay (HSV-1 P30-UL42; all concentrations tested (up to 50 μM)): did not show meaningful inhibition
anti-HSV: number of plaques relative to DMSO vehicle (HSV-1 strain KOS; 0.40 μM compound, 2 dpi): 98.0000 and 100.0000 (2×)
anti-HSV: number of plaques relative to DMSO vehicle (HSV-1 strain KOS; 0.80 μM compound, 2 dpi): 90.0000 and 100.0000 (2×)
anti-HSV: number of plaques relative to DMSO vehicle (HSV-1 strain KOS; 1.60 μM compound, 2 dpi): 78.0000 and 92.0000 and 85.0000
anti-HSV: number of plaques relative to DMSO vehicle (HSV-1 strain KOS; 50.00 μM compound, 2 dpi): 0.0000
ED50, anti-HSV-1 (HSV-1 strain KOS; HFF, standard plaque reduction assay, 2 dpi): 11 µM
cytotoxic potency relative to anti-HSV-1 potency (HSV-1 strain KOS; two-day WST-1 vs HSV-1 plaque reduction): 3- to 4 fold
